# Reference: PubChem BioAssay AID624202 (National Center for Advancing Translational Sciences (NCATS), 2012)
# Among all 380,000 compounds or so, about 4,000 (1.1%) were called active. This list was built around the results that the source calls inconclusive (neither active nor inactive); the mix of calls is not that of the screen. Calls come from the whole dose curve; as a rule, active = well fitted activation curve with a large enough effect; inconclusive = small, poorly fitted or top-dose-only effect; inactive = no such curve, though single readings can be large or run the other way. Potencies of inconclusive entries are doubtful fits and often do not repeat.
# Assay: qHTS Assay to Identify Small Molecule Activators of BRCA1 Expression; note: nearly all actives have a fitted effect of over 80% in size
# Details: MCF7-BRCA1-FFLuc reporter, luminescence, 48 h; activation: at 46.1 µM (top of the series), scaled: vehicle 0%, 10 µM genistein 100% unless noted
# Outline: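 Compounds are tested at multiple concentrations on MCF7 BRCA1-luciferase reporter cells seeded at 2000 per well; after 48 h, a single luminescence end-point is taken and curves fitted to the normalized data.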
# Potency is the fitted concentration of half-maximal effect; tags give direction and shape of the fitted curve.
SMILES,Potency,activation
O=C(NCC(=O)N1CCCCC1)c1ccc(Cl)cc1Cl,"inconclusive: 31.6 µM [activator, single point]",–
COc1ccc2sc(NC(C)=O)nc2c1,"inconclusive: 1.26 µM [activator, partial curve, poor fit]",–
O=[N+]([O-])c1ccc(COc2cccc3cccnc23)cc1,active: 11.2 µM,–
O=[N+]([O-])c1cccc(/C=N/Nc2nccnc2Cl)c1,active: 7.94 µM,–
Fc1ccccc1NC(=S)N1CCN(C/C=C/c2ccccc2)CC1,–,inactive: -17.7%
O=C(OCc1ccccn1)c1ccc(COc2ccc3ccccc3c2)o1,"inconclusive: 1.58 µM [activator, partial curve, poor fit]",–
O=C(NC1CCCCCCC1)c1ccc(F)cc1,active: 2.82 µM,–
Cc1cccc(NC(=O)c2cnn(-c3ccccc3)c2C)c1C,"inconclusive: 7.08 µM [activator, full curve, poor fit]",–
C=CCNC(=O)C1CC(=O)N(c2ccc(OCC(=O)Nc3ccccc3)cc2)C1 (stereo unspecified),"inconclusive: 20 µM [activator, single point]",–
COc1cccc(NC(=O)c2ccccc2Br)c1,"inconclusive: 12.6 µM [activator, partial curve, poor fit]",–
O=C(Nc1ccc2ccccc2n1)C1CCCCC1,active: 2.82 µM,–
C#Cc1cccc(NC(=O)c2ccc(Cl)cc2Cl)c1,active: 1.78 µM,–
Cc1ccc2nc(-c3cccc(Br)c3)c(CC3CCCCC3)n2c1,"inconclusive: 25.1 µM [activator, single point]",–
COc1cc2c(c(OC)c1OC)-c1ccc(OC)c(=O)cc1C(NC(=O)c1ccccc1)CC2 (stereo unspecified),–,inconclusive: -83.4% [activator]
S=C(NCCc1cccc(Cl)c1)NC1CCCCC1,active: 3.16 µM,–
O=C(c1ccc2c(c1)OCCCO2)c1cccs1,"inconclusive: 2.24 µM [activator, full curve, poor fit]",–
Cc1occc1C(=O)N/N=C/c1ccccc1[N+](=O)[O-],"inconclusive: 10 µM [activator, partial curve, poor fit]",–
CC(C)CN=CC1=C(O)c2ccccc2C1=O,"inconclusive: 1.41 µM [activator, partial curve, poor fit]",–
Cc1ccc(OCc2ccc(C(=O)N3CCOCC3)cc2)cc1C,"inconclusive: 2.24 µM [activator, full curve, poor fit]",–
COc1ccc(-c2csc(NC(=O)c3ccccc3F)n2)cc1,"inconclusive: 35.5 µM [activator, single point]",–
CC(=O)c1cnc(Nc2cccc(Cl)c2Cl)s1,active: 10 µM,–
Nc1c2c(=O)oc(-c3ccccc3)cc2nn1-c1ccccc1,"inconclusive: 1.26 µM [activator, partial curve, poor fit]",–
CSc1ccccc1OCc1cc(C(=O)N2CCCC(C)C2)no1 (stereo unspecified),"inconclusive: 7.08 µM [activator, full curve, poor fit]",–
CNc1nnc(SCC(=O)c2cc(C)n(C3CC3)c2C)s1,"inconclusive: 7.08 µM [activator, full curve, poor fit]",–
CSc1nnc(-c2cccn(Cc3ccccc3)c2=O)o1,–,inactive: 29.2%
COc1ccc(N2C(=O)CC(N3CCC(C(N)=O)CC3)C2=O)cc1 (stereo unspecified),"inconclusive: 10 µM [activator, partial curve, poor fit]",–

SMILES,Potency,activation
COC(=O)c1ccc(OCC(=O)c2cccc(OC)c2)cc1,active: 2 µM,–
CCOCC(=O)Nc1c(C(=O)Nc2ccc3c(c2)OCCO3)oc2ccccc12,active: 2 µM,–
O=[N+]([O-])c1ccc(NN=Cc2ccc3c(c2)OCO3)nc1,"inconclusive: 2.51 µM [activator, full curve, poor fit]",–
Cc1nn(Cc2ccccc2)c(C)c1NC(=O)c1cc(-c2ccco2)on1,–,inactive: 0.267%
Cc1ccc(-c2nc(-c3ccncc3)no2)cc1Cl,"inconclusive: 2.51 µM [activator, full curve, poor fit]",–
COC(=O)CSc1nc(N2CCCCC2)c2c(c1C#N)CCCC2,–,inactive: 2.55%
CCCCOc1ccc(C2CCC(C(C)=O)C(C)C2)cc1 (stereo unspecified),active: 10 µM,–
O=C(NC(Cc1ccc2c(c1)OCO2)C(=O)NC(Cc1ccccc1)C(=O)O)c1ccccc1 (stereo unspecified),–,inactive: 9.52%
N/C(=N\OC(=O)COc1ccccc1)c1ccccn1,active: 12.6 µM,–
COc1ccc(Nc2nnc(SCC(=O)N(CC(C)C)C3CCS(=O)(=O)C3)s2)cc1 (stereo unspecified),active: 7.08 µM,–
Cc1ccc(Cn2ccc(C3CC3)n2)cc1,"inconclusive: 31.6 µM [activator, single point]",–
CCn1cnc2cc(NCc3ccc(C)cc3)ccc21,active: 3.55 µM,–
O=C(N/N=C\c1ccco1)Nc1cccc(Cl)c1,"inconclusive: 3.16 µM [activator, partial curve, poor fit]",–
Cc1[nH][nH]c(=O)c1C(c1c(C)[nH][nH]c1=O)c1cn(Cc2ccc(Cl)c(Cl)c2)c2ccccc12,–,inactive: -18.7%
Cc1ccnc(SCC(=O)c2cc3ccccc3o2)n1,active: 8.91 µM,–
COc1ccc(-c2ccn(-c3cccc(F)n3)n2)cc1,active: 3.16 µM,–
O=C(CN1C(=O)NC2(CCCCC2)C1=O)N1CCc2ccccc2C1,–,inactive: 16.9%
Clc1ccc(NC2(c3nnnn3C3CCCCC3)CCCCC2)cc1,–,inactive: -37.6%
Cc1ccccc1OCC(=O)Nc1cc(S(=O)(=O)N2CCOCC2)ccc1N1CCCC1,–,inactive: -9.95%
CCCOc1ccc(C(=O)Nc2ccc3c(c2)OCO3)cc1,active: 3.16 µM,–
Nc1ncccc1OCc1ccc(Cl)c(Cl)c1,"inconclusive: 2.24 µM [activator, full curve, poor fit]",–
S=C(NCc1ccccc1)Nc1cccc(Cl)c1,–,inactive: 3.35%
CCOc1ccc(NC(=O)NC2CCCCCCC2)cc1,"inconclusive: 2.51 µM [activator, full curve, poor fit]",–
CCC(Sc1ncnc2c1nnn2-c1ccc(F)cc1)C(=O)OC (stereo unspecified),"inconclusive: 31.6 µM [activator, single point]",–
O=C(Nc1cccc(Cl)c1)N1CCc2ccccc2C1,"inconclusive: 6.31 µM [activator, full curve, poor fit]",–
